Inconclusive means that the source gave no clear call. Such entries were picked first, then a sample of the others. Where the call is inconclusive, the potency comes from a doubtful curve fit. “Side channel” marks fits to a control or component signal instead of the main read-out. The source made the active and inactive calls. Calls come from the whole dose curve; as a rule, active = well fitted activation curve with a large enough effect in the signal ratio, with a control signal flat (not every such curve was filed as active); inconclusive = small, poorly fitted or top-dose-only effect, or effect the other way, or a change in a side signal; inactive = flat fitted curve, though single readings scatter; the % refers to the signal ratio.
Experiment: qHTS Assay for Identification of Small Molecule Agonists for Hypoxia Response Element Signaling Pathway (AID 914); for activation: top concentration of the series differs between compounds; % of control where 0% means no effect
Details: ME-180 (cervical carcinoma) HRE-bla reporter, beta-lactamase ratio, CoCl2, 17 h; activation: hits give high values
In short: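 HRE-bla ME-180 cells, overnight plating in Opti-MEM with 0.5% dialyzed FBS; cpd titration + EC50 CoCl2, 17 h, 37 degrees Celsius; CCF4 2.5 h RT; 460/530 nm ratio; AC50.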
Potency is the fitted concentration of half-maximal effect; tags give direction and shape of the fitted curve or compound fluorescence and quenching.

**Q.** With CC1(C)Cc2c(c(-c3ccccc3)[nH]c(=O)c2C#N)CS1 as the compound, how does the Potency read?
**A.** Its Potency is inconclusive: 12.6 µM [inhibitor, single point].

**Q.** Which Potency does the source give for CCCCOc1ccc(C(=O)Nc2ccc(N3CCN(C(C)=O)CC3)cc2)cc1 here?
**A.** Its Potency is active: 2.51 µM.

**Q.** For CCN1CCCC1Cn1cnc2c([nH]c3ccc(C)cc32)c1=O (centres undefined), which activation is on record?
**A.** Its activation is inactive: 9.56%.

**Q.** Which activation does the source give for CN(Cc1ccccc1)Cc1c[nH]c2ccccc12 here?
**A.** Its activation is inactive: -19.8%.

**Q.** Which activation does the source give for C#CCCCO/N=C1/C[C@@H](O)[C@@H](O)[C@@H]2[C@@H]3C(=O)N(c4cccc(Oc5ccccc5)c4)C(=O)[C@H]3CC[C@@H]12 here?
**A.** The activation was inactive: -6.82%.

**Q.** Which Potency does the source give for COc1ccccc1C1C(C#N)=C(N)Oc2cc(C)n(Cc3ccccn3)c(=O)c21 (centres undefined) here?
**A.** Its Potency is inconclusive: 2.51 µM [activator, single point].

**Q.** Which Potency does the source give for Nc1ccccc1C(=O)/C=C\c1ccc2c(c1)OCO2 here?
**A.** The Potency was inconclusive: 5.01 µM [activator, single point].

**Q.** For CC(C)CO/N=C1/C[C@@H](O)[C@@H](O)[C@@H]2[C@@H]3C(=O)N(C4CCCCC4)C(=O)[C@H]3CC[C@@H]12, which activation is on record?
**A.** Its activation is inactive: -7.25%.

**Q.** Which Potency does the source give for CN(C)c1ccc(O)c2c1C[C@H]1C[C@H]3[C@@H](N(C)C)C(=O)C(C(N)=O)=C(O)[C@]3(O)C(=O)C1=C2O here?
**A.** Its Potency is inconclusive: 7.94 µM [inhibitor, partial curve, poor fit].

**Q.** With CC(C)CNc1nc2ncnc(N)c2[nH]1 as the compound, how does the activation read?
**A.** The activation was inactive: 10.3%.

**Q.** Which activation does the source give for COC(=O)N1CCC[C@@]2(CCN(c3ncccn3)C2)C1 here?
**A.** Its activation is inactive: 23.3%.

**Q.** Which activation does the source give for C[C@@H](C[C@H](N)C(=O)O)C(=O)O here?
**A.** Its activation is inconclusive: -3.28%.

**Q.** For N=C(N)[C@H](N=Nc1ccccc1)C(N)=O, which activation is on record?
**A.** The activation was inactive: 1%.

**Q.** Which activation does the source give for CCSC(SCC)[C@H](O)[C@@H](O)[C@H](O)[C@H](O)CO here?
**A.** Its activation is inactive: 9.48%.

**Q.** With O=C(O)c1ccc(CNCc2ccccc2)cc1 as the compound, how does the activation read?
**A.** The activation was inactive: 4.76%.

**Q.** With CC(C)C(=O)N[C@@H]1CCCN1C(=O)/C=C\c1ccccc1 as the compound, how does the activation read?
**A.** Its activation is inactive: 12.7%.

**Q.** With OC(Cc1cccnc1)(c1ccccc1)c1ccccc1 as the compound, how does the Potency read?
**A.** The Potency was inconclusive: 0.1 µM [cytotoxic, side channel].

**Q.** For Cc1cc(O)c(C(C)C)cc1N=C1CSC(=O)N1, which activation is on record?
**A.** Its activation is inconclusive: 24.3%.

**Q.** With CCOC(=O)c1ccc(CC2S/C(=C(\C#N)C(C)=O)NC2=O)cc1 (centres undefined) as the compound, how does the Potency read?
**A.** Its Potency is inconclusive: 3.98 µM [inhibitor, partial curve].

**Q.** With O=C1CCC[C@H]1C(=O)Nc1ccc2ccccc2c1 as the compound, how does the activation read?
**A.** Its activation is inconclusive: 5.42%.

**Q.** For COC(=O)C1=C(C)N=C2SC(C)C(=O)N2C1c1cccc(F)c1 (centres undefined), which Potency is on record?
**A.** Its Potency is inconclusive: 10 µM [inhibitor, single point].

**Q.** For CSc1nc(C)cc(Nc2ccc(O)c(CN3CCOCC3)c2)n1, which activation is on record?
**A.** Its activation is inconclusive: -5.78%.

**Q.** Which activation does the source give for C/C(CCN1CCc2nc(-c3ccccc3)c(-c3ccccc3)cc2C1)=N\O[C@@H](C)c1cn([C@@H]2COC[C@@H]2O)nn1 here?
**A.** Its activation is inconclusive: -5.81%.

**Q.** With Cc1cccc(NC(=O)c2cc(N3CCOCC3)nc3ccccc23)c1 as the compound, how does the Potency read?
**A.** The Potency was inconclusive: 3.16 µM [inhibitor, full curve, poor fit].

**Q.** With O=C1C(=O)N(Cc2cccnc2)C(c2ccccn2)/C1=C(/O)c1ccccc1 (centres undefined) as the compound, how does the activation read?
**A.** The activation was inactive: 2.14%.

**Q.** For Nc1[nH]c(=S)[nH]c(=O)c1N=Nc1c(Br)cc(S(N)(=O)=O)cc1Br, which activation is on record?
**A.** The activation was inconclusive: 13.9%.

**Q.** With CN1c2ccccc2-c2nc3ccccc3n2C1c1ccco1 (centres undefined) as the compound, how does the activation read?
**A.** Its activation is inactive: -8.71%.

**Q.** With CN(C)C=C1C(=O)c2ccccc2C1=O as the compound, how does the Potency read?
**A.** The Potency was inconclusive: 5.01 µM [inhibitor, partial curve].

**Q.** Which activation does the source give for COc1cccc(Cn2c(=O)c(CCc3ccccc3)nc3cncnc32)c1 here?
**A.** Its activation is inconclusive: -24.6%.

**Q.** Which Potency does the source give for Cc1ccc2cc(CNC(C)(C)C)c(=O)[nH]c2c1 here?
**A.** The Potency was inconclusive: 3.16 µM [inhibitor, partial curve, poor fit].

**Q.** With O=C(N/N=C1/C[C@@H](O)[C@@H](O)[C@@H]2[C@@H]3C(=O)N(c4cccc(Oc5ccccc5)c4)C(=O)[C@H]3CC[C@H]12)OCc1ccccc1 as the compound, how does the activation read?
**A.** Its activation is inactive: 9.49%.

**Q.** Which Potency does the source give for O=C1CCCC=C1[C@@H](O)C1CCCCC1 here?
**A.** Its Potency is inconclusive: 0.158 µM [inhibitor, partial curve].

**Q.** Which activation does the source give for CS(=O)(=O)Nc1cccc(-c2nccc(-n3ccnc3)n2)c1 here?
**A.** The activation was inactive: -11.9%.

**Q.** With CN=c1sc2ccccc2n1CC(O)COc1ccccc1 (centres undefined) as the compound, how does the Potency read?
**A.** The Potency was inconclusive: 12.6 µM [inhibitor, single point].
